Results reported in PubChem BioAssay AID894 (National Center for Advancing Translational Sciences (NCATS), 2007).
Among all 150,000 compounds or so, about 6,500 (4.3%) were called active. Inconclusive results, whose numbers are uncertain, are shown with a selection of clear calls. Calls follow the shape of the dose curve; as a rule, active = well fitted inhibition curve with a large enough effect (not every such curve was filed as active); inconclusive = small, poorly fitted or top-dose-only effect, or another doubt; inactive = no such curve, though single readings can be large or run the other way. Potencies of inconclusive entries are left out as doubtful fits.

The molecules below were run against 15-hydroxyprostaglandin dehydrogenase [NAD(+)] (Homo sapiens) (UniProt P15428) (assay: qHTS Assay for Inhibitors of HPGD (15-Hydroxyprostaglandin Dehydrogenase)). Details: purified HPGD, NADH fluorescence kinetic, PGE2 substrate; activity change, negative = inhibition: active compounds read low.
Chain of UniProt P15428 (P15428 whole entry, looked up): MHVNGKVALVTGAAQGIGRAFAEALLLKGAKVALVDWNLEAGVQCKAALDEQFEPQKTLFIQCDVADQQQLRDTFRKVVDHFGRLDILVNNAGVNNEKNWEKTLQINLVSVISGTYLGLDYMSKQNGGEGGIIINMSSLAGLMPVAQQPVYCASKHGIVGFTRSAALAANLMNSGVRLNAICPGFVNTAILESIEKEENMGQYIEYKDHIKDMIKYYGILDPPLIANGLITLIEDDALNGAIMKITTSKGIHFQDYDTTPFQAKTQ
In short: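 20 nM HPGD preincubated 15 min at room temperature with compound in 50 mM Tris-HCl pH 8, 0.01% Tween 20. Started with 1 mM NAD+ and 30 uM prostaglandin E2; NADH fluorescence (360/450 nm) read 5 times over 30-s intervals, last minus first.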
% is scaled to controls: 0 for no effect and ±100 for the full control effect; potency is read from the fitted curve at half-maximal effect; tags tell the direction and shape of the fitted curve.

Row | SMILES | Potency | activity change, negative = inhibition
1 | COc1ccc(CC(=O)Nc2ccc(-c3noc(-c4cc(OC)c(OC)c(OC)c4)n3)cc2)cc1 | inconclusive [inhibitor, partial curve] | 
2 | CCOC(=O)CSC1=C(C#N)C(c2ccc(OC)cc2)C2=C(CC(C)(C)CC2=O)N1 (centres undefined) | inconclusive [inhibitor, partial curve] | 
3 | COc1cc2oc(=O)c3c(c2cc1OCC(=O)c1c(C)n(C)c2ccccc12)CCCC3 | inconclusive [inhibitor, partial curve] | 
4 | CCOCCCn1c(SCc2nc3ccccc3s2)nc2ccccc2c1=O | inconclusive [inhibitor, partial curve] | 
5 | Cc1occc1C(=O)NC(C)C(C)(C)C (centres undefined) | active: 31.6 µM | 
6 | COc1ccc(Cl)cc1NC(=O)CN1CCC(n2nnc3cc(F)ccc32)CC1 |  | inactive: -1.07%
7 | Cc1nnc(SCC(=O)Nc2ccccc2)[nH]c1=O |  | inactive: -10.5%
8 | COCCN1C=C(C(=O)OC)C(c2cc(Br)c(OC)c(OC)c2)C(C(=O)OC)=C1 | inconclusive [inhibitor, partial curve] | 
9 | Cc1ccc2cc3c(NC(=O)C4CCCO4)nn(CC(C)C)c3nc2c1 (centres undefined) | inconclusive [inhibitor, single point] | 
10 | CC(C)(C)c1ccc(C(=O)NC(=S)Nc2nc3c(s2)CCCC3)cc1 |  | inactive: -13.3%
11 | Cc1ccsc1/C=C/c1ccc2ccccc2n1 | inconclusive [inhibitor, single point] | 
12 | Cc1ncc(CO)c(/C=N/NC(=S)Nc2ccc(F)cc2)c1O | inconclusive [inhibitor, partial curve] | 
13 | S=c1nc(-c2ccccc2)[nH]n1-c1ccccc1 | inconclusive [inhibitor, partial curve] | 
14 | COC(=O)c1ccc(C(=O)Nc2cc(Cl)ccc2Cl)cc1NC(=O)c1ccc(N(C)C)cc1 |  | inactive: -16.4%
15 | CSC1=C(C#N)C(c2ccccc2Cl)C2=C(N1)c1ccccc1C2=O (centres undefined) | inconclusive [inhibitor, full curve, poor fit] | 
16 | COc1ccc(CC/C(=N\O)C2(O)CCCCC2)cc1 |  | inactive: -8.7%
17 | Cc1nnc(SCC(=O)N2c3ccccc3CC2C)[nH]c1=O (centres undefined) |  | inactive: -26.1%
18 | Cc1[nH]n(-c2ccccc2)c(=O)c1C(c1cccc([N+](=O)[O-])c1)c1c(C)[nH]n(-c2ccccc2)c1=O | active: 31.6 µM | 
19 | COc1ccccc1NC(=O)c1ccc(-c2ccc(Br)cc2)o1 | inconclusive [inhibitor, partial curve] | 
20 | CN(C1CCCCC1)S(=O)(=O)c1ccc(NC(=S)NC(=O)c2cccs2)cc1 |  | inactive: -12.9%
21 | C/C(=C\C(=S)Nc1ccccc1)Nc1cccc2ccccc12 | inconclusive [inhibitor, partial curve] | 
22 | COc1ccccc1-c1nnc(SC/C(O)=C(\C#N)c2nc3ccccc3[nH]2)n1C1CCCCC1 | active: 35.5 µM | 
23 | O=C1c2ccccc2S(=O)(=O)N1CCOc1ccccc1 | inconclusive [inhibitor, partial curve] | 

Row | SMILES | Potency | activity change, negative = inhibition
24 | CCc1ccccc1NC(=O)c1nnn(CC(=O)Nc2cccc(C)c2C)c1N | inconclusive [inhibitor, single point] | 
25 | Cc1csc(NC(=O)c2cc(-c3ccco3)nc3ccccc23)n1 | inconclusive [inhibitor, partial curve] | 
26 | COCCn1c(=O)[nH]c2cc(C(=O)OC)ccc2c1=O | inconclusive [inhibitor, partial curve] | 
27 | Cc1csc(NC(=O)/C=C/c2ccco2)n1 | inconclusive [inhibitor, partial curve] | 
28 | O=C(NCc1ccco1)c1cc(-c2ccccc2)c(N2CCOCC2)s1 |  | inactive: -18.7%
29 | COc1ccc(-c2cc(-n3c(C(F)(F)F)nc4ccccc43)n(CCC#N)n2)cc1 | inconclusive [inhibitor, partial curve] | 
30 | Cc1cc(/C=C(\C#N)C(=O)OCC(=O)NC(=O)NC(C)(C)C)c(C)n1CCC(C)C | inconclusive [inhibitor, single point] | 
31 | O=C(NCc1ccccc1)C12CN(Cc3ccccc3)CC1C(c1ccc([N+](=O)[O-])cc1)=NO2 (centres undefined) |  | inactive: -4.86%
32 | COc1cccc(/C=N/n2nnc3c(cnn3-c3ccccc3)c2=O)c1 | inconclusive [inhibitor, single point] | 
33 | COc1ccc(C(F)(F)F)cc1NC(=O)c1nc2nc(C)cc(C(F)F)n2n1 | inconclusive [inhibitor, single point] | 
34 | CCCn1c(CCC(=O)O)ccc1-c1ccc(OC)cc1 | inconclusive [inhibitor, partial curve] | 
35 | O=C(OCc1ccc(F)cc1)c1ccc2c(c1)-c1ccccc1C2=O |  | inactive: -11%
36 | O=C(NNc1ccc([N+](=O)[O-])cc1)C1CC1c1ccccc1 (centres undefined) | active: 25.1 µM | 
37 | NC(=S)N/N=C/c1ccc(-c2ccc(Cl)c(Cl)c2)o1 | inconclusive [inhibitor, partial curve] | 
38 | CCOC(=O)COc1ccc2cc(C(=O)OCC)c(=O)oc2c1 | inconclusive [inhibitor, partial curve] | 
39 | Cc1nc(Nc2ccc3c(c2)OCCO3)c2nnn(Cc3ccccc3Cl)c2n1 | inconclusive [inhibitor, single point] | 
40 | CCOC(=O)CCc1c(C)nc2cc(-c3ccc(F)cc3)[nH]n2c1=O | inconclusive [inhibitor, partial curve] | 
41 | CCOC(=O)c1ccc(NC(=O)CSc2nc3cccnc3n2C)cc1 |  | inactive: -15.6%
42 | C/C(CCc1oc2ccc(Br)cc2c1-c1ccc(C)o1)=N/O | active: 20 µM | 
43 | COc1cccc(-c2nnc3sc(-c4ccco4)nn23)c1 | inconclusive [inhibitor, full curve, poor fit] | 
44 | O=C(O)CNC(=O)[C@H]1NC(C(F)(F)F)(C(F)(F)F)OC1(C(F)(F)F)C(F)(F)F |  | inactive: -0.447%
45 | O=C(NCc1ccco1)c1nc2c(nnn2Cc2cccc(Cl)c2)c(=O)[nH]1 | active: 0.355 µM | 
46 | Cc1ccccc1NC(=S)N(C)Cc1cn(C)c2ccccc12 | inconclusive [inhibitor, single point] | 

Row | SMILES | Potency | activity change, negative = inhibition
47 | COc1ccc(CCNc2nc(-c3sc(N)nc3C)cs2)cc1OC |  | inactive: -10%
48 | CC1=NN(c2ccc(S(=O)(=O)O)cc2)C(=O)/C1=C\c1ccc(Cl)cc1 | inconclusive [inhibitor, single point] | 
49 | Cc1nn(-c2ccccn2)c2c1C(c1ccncc1)C1=C(CC(C)(C)CC1=O)N2 (centres undefined) | inconclusive [inhibitor, partial curve, poor fit] | 
50 | O=c1oc2cc(Oc3ccc(C(F)(F)F)cc3[N+](=O)[O-])ccc2c2c1CCC2 | inconclusive [inhibitor, single point] | 
51 | O=C(Nc1ccc(Cl)cc1)[C@@H]1[C@@H]2C(=O)N(c3ccc4ccccc4c3)C(=O)[C@@H]2[C@H]2C=CC=NN21 | inconclusive [inhibitor, single point] | 
52 | Fc1ccc(-c2nc3n(c2-c2ccncc2)CCS3)cc1 | inconclusive [inhibitor, partial curve, poor fit] | 
53 | O=C(NCc1ccco1)c1cc2ccc(O)cc2oc1=O | inconclusive [inhibitor, partial curve, poor fit] | 
54 | CCCCC(=O)Nc1cccc(NC(=S)NC(=O)C(C)C)c1 |  | inactive: -5.11%
55 | Cc1ccc(C2OC(=O)c3ccccc32)cc1 (centres undefined) |  | inactive: -9.6%
56 | CCOc1ccc(S(=O)(=O)Nc2ccc(S(=O)(=O)N3CCCCC3)cc2)cc1 |  | inactive: -4.52%
57 | O=C(Nc1ccccc1OC(F)F)c1oc2ccccc2c1COc1ccccc1 | inconclusive [inhibitor, partial curve] | 
58 | CC(=O)CCc1c(C)nc2ccc(C(=O)O)cc2c1Cl | inconclusive [inhibitor, partial curve] | 
59 | Cc1ccsc1C(=O)N/N=C/c1ccc2c(c1)OCO2 | inconclusive [inhibitor, single point] | 
60 | COc1ccc(-c2nc3oc4cc(OC)ccc4c(=O)c3c(=O)n2Cc2ccco2)cc1 | inconclusive [inhibitor, partial curve] | 
61 | CC(C)[C@H](Nc1nc(-c2ccccc2)nc2c1oc1ccccc12)C(=O)O |  | inactive: 0.223%
62 | Brc1ccc(Nc2nc3ccccc3n3nnnc23)cc1 | inconclusive [inhibitor, partial curve] | 
63 | COc1ccc(-c2nc3cnc(Oc4ccccc4)nc3n(C3CC3)c2=O)cc1 | inconclusive [inhibitor, partial curve] | 
64 | O=C(O)CC1NC(=S)N(c2ccccc2)C1=O (centres undefined) |  | inactive: -11.6%
65 | C/C(=C(/CCO)SSC[C@@H]1CCCO1)N(C=O)Cc1cnc(C)nc1N |  | inactive: -0.287%
66 | CCOC(=O)c1c(NC(=O)Cc2cccs2)sc(C(=O)N2CCCCC2)c1C | active: 7.08 µM | 
67 | C=CCNC(=O)c1cc(Cl)ccc1Cl | active: 20 µM | 
68 | OCCN1CCN(CCCN2c3ccccc3Sc3ccc(Cl)cc32)CC1 |  | inactive: -3.02% [middle of 4 runs]
69 | COC(=O)c1cc2c(=O)n3cccc(C)c3nc2n(Cc2cccnc2)c1=N | inconclusive [inhibitor, partial curve] | 
